Data reported in the supplement of paper PMC12217912.
This is one part of the list. The full chains were built here from the parent and the listed change. Inactive controls read about 0.05.

B1: TEV protease; numbered along this chain (parent)
chain: MGESLFKGPRDYNPISSSICHLTNESDGHTTSLYGIGFGPFIITNKHLFRRNNGTLVVQSLHGVFKVKDTTTLQQHLVDGRDMIIIRMPKDFPPFPQKLKFREPQREERICLVTTNFQTKSMSSMVSDTSCTFPSGDGIFWKHWIQTKDGQCGSPLVSTRDGFIVGIHSASNFTNTNNYFTSVPKNFMELLTNQEAQQWVSGWRLNADSVLWGGHKVFMVKPEEPFQPVKEATQL

Variants of: B1
Experiment: raw area under fraction-flipped curve 0-4 h after induction (AUC4h, not background-subtracted), DNA-recorder readout of cleavage of the substrate (dimensionless); higher = more cleavage of the substrate by the protease variant
Details: temperature: 34 °C; time window: 0-4 h after rhamnose induction
Experimental: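 In vivo DNA recorder in E. coli TOP10(DE3) ΔrhaA at 34 °C. Each TEVp single-site mutant (parent TEVp 0) is paired with a single-site variant of the 7-mer TEVs (canonical ENLYFQ|S). The substrate sits between flexible linkers in a Bxb1-sfGFP-TEVs-SsrA fusion, so cleavage stabilises Bxb1 and speeds flipping of a recombination array, read by NGS. The value is the raw area under the fraction-flipped curve over 0-4 h after rhamnose induction (AUC4h), with ≥20 reads per time point. It is not background-subtracted; inactive controls average about 0.047.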
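Also: Bxb1 expression induced with 0.2% (w/v) L-rhamnose at OD600 near 0.5, cultures sampled hourly, flipped fraction per protease–substrate barcode pair counted by paired-end Illumina sequencing.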

Row | Variant | area with substrate ENLAFQS | area with substrate ENLDFQS | area with substrate ENLEFQS | area with substrate ENLFFQS | area with substrate ENLKFQS | area with substrate ENLLFQS | area with substrate ENLNFQS | area with substrate ENLPFQS | area with substrate ENLQFQS | area with substrate ENLRFQS | area with substrate ENLSFQS | area with substrate ENLWFQS | area with substrate ENLHFQS | area with substrate ENLIFQS | area with substrate ENLVFQS | area with substrate ENLCFQS | area with substrate ENLMFQS | area with substrate ENLTFQS | area with substrate ENLGFQS
1 | I42E | 0.0366 | 0.0475 | 0.0567 | 0.0411 | 0.0531 | 0.0254 | 0.0678 | 0.0434 | 0.0347 | 0.0449 | 0.0607 | 0.0459 |  |  |  |  |  |  | 
2 | I42P | 0.0446 | 0.0401 | 0.0331 | 0.0383 | 0.042 | 0.033 | 0.0427 | 0.0434 | 0.0526 | 0.0507 | 0.0485 | 0.0525 | 0.0336 | 0.0425 | 0.0543 |  |  |  | 
3 | V57C | 0.0647 | 0.0643 |  | 0.0749 | 0.092 | 0.0852 | 0.0541 | 0.0639 | 0.0765 | 0.0646 | 0.0642 |  | 0.0751 | 0.072 | 0.0746 | 0.0673 |  |  | 
4 | V57D | 0.0773 | 0.0706 |  | 0.0955 | 0.0747 | 0.0507 | 0.0575 |  |  |  |  |  | 0.0924 |  | 0.0865 | 0.0717 |  |  | 
5 | M83Q | 0.0594 | 0.0783 |  | 0.0569 | 0.0573 | 0.0749 |  |  | 0.0306 |  | 0.0491 | 0.0502 | 0.0569 |  | 0.0036 |  | 0.074 | 0.0601 | 
6 | M83S | 0.0528 | 0.0639 |  | 0.0542 | 0.0658 |  | 0.0953 | 0.0547 |  | 0.0723 | 0.0785 | 0.0477 | 0.0659 | 0.0593 |  |  | 0.039 |  | 0.0675
7 | M83Y | 0.0497 | 0.046 |  | 0.0651 | 0.0547 |  | 0.0625 | 0.0659 | 0.0535 |  | 0.0547 |  | 0.0619 | 0.0376 |  |  |  |  | 
8 | L22F | 0.0579 | 0.0565 | 0.0606 | 0.0744 | 0.0706 | 0.0581 | 0.0584 | 0.0625 | 0.0569 | 0.0615 | 0.0625 |  | 0.0581 | 0.0621 |  | 0.0632 | 0.0529 |  | 0.0454
9 | T71Y | 0.0647 |  | 0.0661 |  |  |  | 0.0632 | 0.0499 |  | 0.0543 |  |  |  |  | 0.053 | 0.0582 | 0.0709 |  | 
10 | T71H | 0.0526 |  |  |  |  |  |  | 0.073 | 0.0544 | 0.0671 | 0.0573 |  |  | 0.0806 |  |  | 0.0789 |  | 0.0776
11 | T71D | 0.0608 |  |  | 0.0646 |  | 0.062 | 0.0745 | 0.0636 |  |  | 0.0767 |  |  | 0.0761 | 0.074 |  |  | 0.0758 | 
12 | K98Y | 0.0655 | 0.0737 | 0.0668 | 0.0836 |  | 0.0919 | 0.0623 | 0.0638 |  | 0.0756 | 0.0644 | 0.064 | 0.067 | 0.0835 |  |  |  | 0.0572 | 0.0733
13 | G80F | 0.0525 | 0.0648 |  | 0.093 | 0.0684 |  |  | 0.0503 |  |  | 0.0571 |  | 0.0658 | 0.0801 |  |  |  |  | 
14 | D82E | 0.0613 | 0.0727 | 0.0673 | 0.09 | 0.0641 | 0.0416 | 0.0526 | 0.0768 |  |  |  | 0.0551 | 0.0715 | 0.076 |  | 0.0847 | 0.0632 | 0.0279 | 
15 | N53E | 0.0817 | 0.0558 | 0.0671 | 0.0837 |  |  | 0.048 |  |  | 0.0748 | 0.0626 |  |  |  | 0.0895 |  |  |  | 0.0715
